{"source": "the supplement of paper PMC8728848", "binders": {"B1": {"name": "RS2L (Ralstonia solanacearum), B5RXL5_RALSO (protein)", "chain": "MAQQGVFTLPANTSFGVTAFANAANTQTIQVLVDNVVKATFTGSGTSDKLLGSQVLNSGSGAIKIQVSVNGKPSDLVSNQTILANKLNFAMVGSEDGTDNDYNDGIAVLNWPLG"}}, "assay_in_all_cases": "glycan array binding signal (z-score within array); higher = stronger binding", "conditions_in_all_cases": "glycan notation: IUPAC condensed, linker removed", "key": {"[1]": {"target": "Gal(b1-4)GlcNAc(b1-3)Gal(b1-4)Glc", "in_short": "(§1)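 Columns mapping to the same glycan were averaged after glycan names were converted to IUPAC-condensed notation. The data come from 3228 arrays in the Consortium for Functional Glycomics database, limited to those with an available protein sequence. Binding is reported as a within-array Z-score averaged across arrays of one protein sequence and across linkers.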"}, "[2]": {"target": "Gal(b1-4)GlcNAc(b1-3)Gal(b1-4)GlcNAc", "in_short": "as §1"}, "[3]": {"target": "Gal(b1-4)GlcNAc(b1-3)Gal(b1-4)GlcNAc(b1-3)Gal(b1-4)GlcNAc", "in_short": "as §1"}, "[4]": {"target": "Gal(b1-4)GlcNAc(b1-3)Gal(b1-4)[Fuc(a1-3)GlcNAc(b1-6)]Gal(b1-4)Glc", "in_short": "as §1"}, "[5]": {"target": "Gal(b1-4)GlcNAc(b1-3)Gal(b1-4)[Fuc(a1-3)]GlcNAc(b1-3)Gal(b1-4)[Fuc(a1-3)]GlcNAc", "in_short": "as §1"}, "[6]": {"target": "Gal(b1-4)GlcNAc(b1-3)GalNAc", "in_short": "as §1"}, "[7]": {"target": "Gal(b1-4)GlcNAc(b1-3)[Gal(b1-4)GlcNAc(b1-6)]Gal(b1-4)GlcNAc", "in_short": "as §1"}, "[8]": {"target": "Gal(b1-4)GlcNAc(b1-3)[Gal(b1-4)GlcNAc(b1-6)]GalNAc", "in_short": "as §1"}, "[9]": {"target": "Gal(b1-4)GlcNAc(b1-3)[GlcNAc(b1-6)]Gal(b1-4)GlcNAc", "in_short": "as §1"}, "[10]": {"target": "Gal(b1-4)GlcNAc(b1-6)Gal(b1-4)GlcNAc", "in_short": "as §1"}, "[11]": {"target": "Gal(b1-4)GlcNAc(b1-6)GalNAc", "in_short": "as §1"}, "[12]": {"target": "Gal(b1-4)GlcNAc(b1-6)[Gal(b1-3)]GalNAc", "in_short": "as §1"}, "[13]": {"target": "Gal(b1-6)Gal", "in_short": "as §1"}, "[14]": {"target": "Gal3S(b1-3)GalNAc", "in_short": "as §1"}, "[15]": {"target": "Gal3S(b1-3)GlcNAc", "in_short": "as §1"}, "[16]": {"target": "Gal3S(b1-3)[Fuc(a1-4)]GlcNAc", "in_short": "as §1"}, "[17]": {"target": "Gal3S(b1-4)Glc", "in_short": "as §1"}, "[18]": {"target": "Gal3S(b1-4)Glc6S", "in_short": "as §1"}, "[19]": {"target": "Gal3S(b1-4)GlcNAc", "in_short": "as §1"}, "[20]": {"target": "Gal3S(b1-4)GlcNAc6S", "in_short": "as §1"}, "[21]": {"target": "Gal3S(b1-4)[Fuc(a1-3)]Glc", "in_short": "as §1"}, "[22]": {"target": "Gal3S(b1-4)[Fuc(a1-3)]Glc6S", "in_short": "as §1"}, "[23]": {"target": "Gal3S4S(b1-4)GlcNAc", "in_short": "as §1"}, "[24]": {"target": "Gal3S6S(b1-4)GlcNAc", "in_short": "as §1"}, "[25]": {"target": "Gal3S6S(b1-4)GlcNAc6S", "in_short": "as §1"}, "[26]": {"target": "Gal4S(b1-4)GlcNAc", "in_short": "as §1"}, "[27]": {"target": "Gal4S6S(b1-4)GlcNAc", "in_short": "as §1"}, "[28]": {"target": "Gal6S(b1-3)GlcNAc", "in_short": "as §1"}, "[29]": {"target": "Gal6S(b1-3)GlcNAc6S", "in_short": "as §1"}, "[30]": {"target": "Gal6S(b1-4)Glc", "in_short": "as §1"}, "[31]": {"target": "Gal6S(b1-4)Glc6S", "in_short": "as §1"}, "[32]": {"target": "Gal6S(b1-4)GlcNAc", "in_short": "as §1"}, "[33]": {"target": "Gal6S(b1-4)GlcNAc6S", "in_short": "as §1"}, "[34]": {"target": "GalNAc(a1-3)Gal", "in_short": "as §1"}, "[35]": {"target": "GalNAc(a1-3)GalNAc", "in_short": "as §1"}, "[36]": {"target": "GalNAc(a1-3)GalNAc(b1-3)Gal(a1-4)Gal(b1-4)Glc", "in_short": "as §1"}, "[37]": {"target": "GalNAc(a1-3)GalNAc(b1-3)Gal(a1-4)Gal(b1-4)GlcNAc", "in_short": "as §1"}, "[38]": {"target": "GalNAc(b1-3)Gal", "in_short": "as §1"}, "[39]": {"target": "GalNAc(b1-3)Gal(a1-4)Gal(b1-4)GlcNAc", "in_short": "as §1"}, "[40]": {"target": "GalNAc(b1-3)Gal(a1-4)Gal(b1-4)GlcNAc(b1-3)Gal(b1-4)Glc", "in_short": "as §1"}, "[41]": {"target": "GalNAc(b1-3)Gal(a1-6)Gal(b1-4)Glc", "in_short": "as §1"}, "[42]": {"target": "GalNAc(b1-3)GalNAc", "in_short": "as §1"}, "[43]": {"target": "GalNAc(b1-4)Gal(b1-4)Glc", "in_short": "as §1"}, "[44]": {"target": "GalNAc(b1-4)GlcNAc", "in_short": "as §1"}, "[45]": {"target": "GalNAc(b1-4)GlcNAc(b1-2)Man(a1-3)[GalNAc(b1-4)GlcNAc(b1-2)Man(a1-6)]Man(b1-4)GlcNAc(b1-4)GlcNAc", "in_short": "as §1"}}, "note": "The list shows a part of the results.", "data": [{"binder": "B1", "values": [{"measurement": "glycan array binding signal (z-score)", "setting": "[1]", "value": -0.246}, {"measurement": "glycan array binding signal (z-score)", "setting": "[2]", "value": -0.251}, {"measurement": "glycan array binding signal (z-score)", "setting": "[3]", "value": -0.235}, {"measurement": "glycan array binding signal (z-score)", "setting": "[4]", "value": -0.257}, {"measurement": "glycan array binding signal (z-score)", "setting": "[5]", "value": -0.177}, {"measurement": "glycan array binding signal (z-score)", "setting": "[6]", "value": -0.254}, {"measurement": "glycan array binding signal (z-score)", "setting": "[7]", "value": -0.26}, {"measurement": "glycan array binding signal (z-score)", "setting": "[8]", "value": -0.246}, {"measurement": "glycan array binding signal (z-score)", "setting": "[9]", "value": -0.243}, {"measurement": "glycan array binding signal (z-score)", "setting": "[10]", "value": -0.255}, {"measurement": "glycan array binding signal (z-score)", "setting": "[11]", "value": -0.234}, {"measurement": "glycan array binding signal (z-score)", "setting": "[12]", "value": -0.248}, {"measurement": "glycan array binding signal (z-score)", "setting": "[13]", "value": -0.231}, {"measurement": "glycan array binding signal (z-score)", "setting": "[14]", "value": -0.229}, {"measurement": "glycan array binding signal (z-score)", "setting": "[15]", "value": -0.233}, {"measurement": "glycan array binding signal (z-score)", "setting": "[16]", "value": -0.2}, {"measurement": "glycan array binding signal (z-score)", "setting": "[17]", "value": -0.242}, {"measurement": "glycan array binding signal (z-score)", "setting": "[18]", "value": -0.168}, {"measurement": "glycan array binding signal (z-score)", "setting": "[19]", "value": -0.239}, {"measurement": "glycan array binding signal (z-score)", "setting": "[20]", "value": -0.24}, {"measurement": "glycan array binding signal (z-score)", "setting": "[21]", "value": -0.234}, {"measurement": "glycan array binding signal (z-score)", "setting": "[22]", "value": -0.218}, {"measurement": "glycan array binding signal (z-score)", "setting": "[23]", "value": -0.242}, {"measurement": "glycan array binding signal (z-score)", "setting": "[24]", "value": -0.249}, {"measurement": "glycan array binding signal (z-score)", "setting": "[25]", "value": -0.245}, {"measurement": "glycan array binding signal (z-score)", "setting": "[26]", "value": -0.244}, {"measurement": "glycan array binding signal (z-score)", "setting": "[27]", "value": -0.245}, {"measurement": "glycan array binding signal (z-score)", "setting": "[28]", "value": -0.251}, {"measurement": "glycan array binding signal (z-score)", "setting": "[29]", "value": -0.244}, {"measurement": "glycan array binding signal (z-score)", "setting": "[30]", "value": -0.244}, {"measurement": "glycan array binding signal (z-score)", "setting": "[31]", "value": -0.247}, {"measurement": "glycan array binding signal (z-score)", "setting": "[32]", "value": -0.241}, {"measurement": "glycan array binding signal (z-score)", "setting": "[33]", "value": -0.234}, {"measurement": "glycan array binding signal (z-score)", "setting": "[34]", "value": -0.243}, {"measurement": "glycan array binding signal (z-score)", "setting": "[35]", "value": -0.239}, {"measurement": "glycan array binding signal (z-score)", "setting": "[36]", "value": -0.249}, {"measurement": "glycan array binding signal (z-score)", "setting": "[37]", "value": -0.245}, {"measurement": "glycan array binding signal (z-score)", "setting": "[38]", "value": -0.243}, {"measurement": "glycan array binding signal (z-score)", "setting": "[39]", "value": -0.245}, {"measurement": "glycan array binding signal (z-score)", "setting": "[40]", "value": -0.233}, {"measurement": "glycan array binding signal (z-score)", "setting": "[41]", "value": -0.251}, {"measurement": "glycan array binding signal (z-score)", "setting": "[42]", "value": -0.245}, {"measurement": "glycan array binding signal (z-score)", "setting": "[43]", "value": -0.247}, {"measurement": "glycan array binding signal (z-score)", "setting": "[44]", "value": -0.249}, {"measurement": "glycan array binding signal (z-score)", "setting": "[45]", "value": -0.246}]}]}
